Test results as given in patent US6410566B1, “Cyclic amine derivatives and their use as drugs” (Teijin Limited, priority 2000, dated 2002).
Some results were stated once for a whole list of compounds, not compound by compound. At least one structure is not confirmed: it was looked up by name or label, or the drawing left a doubt.

Tests used:
[1] = molecular target: T1, binding of human MCP-1 to THP-1 cells (Homo sapiens, UniProt P41597); assay: Inhibition of binding of [125I]-labeled baculovirus expressed human MCP-1 to THP-1 cells (Method 1)
T1 construct: endogenous in cells; host or cells: THP-1 (human monocytic leukemia cell line), whole cells
T1 sequence (P41597 1-360 isoform P41597-2): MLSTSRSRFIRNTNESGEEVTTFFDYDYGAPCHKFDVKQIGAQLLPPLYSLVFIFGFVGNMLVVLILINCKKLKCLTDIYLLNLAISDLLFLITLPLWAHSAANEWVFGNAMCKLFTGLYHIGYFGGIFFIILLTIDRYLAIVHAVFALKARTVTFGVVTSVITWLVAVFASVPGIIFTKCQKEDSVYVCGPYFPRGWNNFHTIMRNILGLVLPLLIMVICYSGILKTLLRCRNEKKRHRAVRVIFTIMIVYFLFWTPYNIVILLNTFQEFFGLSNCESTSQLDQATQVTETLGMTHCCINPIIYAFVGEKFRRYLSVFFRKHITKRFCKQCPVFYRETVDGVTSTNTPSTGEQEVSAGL
Text: Measurement of Inhibition of MCP-1 Binding to THP-1 Cells 1. Construction of recombinant baculovirus carrying the human MCP-1 gene Based on the previously published human MCP-1 gene sequence (for example T. Yoshirnura et al., FEBS Lett., 1989, 244, 487-493), two synthetic DNA primers ([NT] and [NT]) flanked by restriction enzyme sites were used to amplify a DNA fragment from cDNA derived from human endothelial cells (purchased from Kurabow Co.); the amplified fragment was cut with the restriction enzymes (PstI and XbaI), ligated into a transfer vector pVL1393 (Invitrogen Co.), and the resulting vector was co-transfected along with infectious baculovirus into Sf-9 insect cells and the supernatant was plaque assayed to yield human MCP-1 gene baculovirus recombinant. […] Using the method of K. Ishii et al. […] The culture supernatant was affinity purified using a heparin Sepharose column (Pharmacia Co.) and then further purified using reverse phase HPLC (Vydac C18 column) to prepare purified human MCP-1. […] 3-1. […] The test. compound was diluted in the assay buffer and used as the test compound solution. [^125I]-labeled human MCP-1 described above was diluted in assay buffer to 1 mCi/mL and used as the labeled ligand solution. In a 96 well filter plate (Millipore Co.), 25 μL of test compound solution, 25 μL of labeled ligand solution and 50 μL of cell suspension were aliquoted into each well in this order, stirred (total reaction volume 100 μL), and incubated for one hour at 18° C. After the reaction, the reaction solution was filtered, and the filter was washed twice with 200 μL of cold PBS (200 μL of cold PBS was added and then filtered). The filter was air-dried and 25 μL of liquid sciatillator was added into each well. The radioactivity retained by the cells on the filter were measured using TopCount (Packard Instrument Co.). To calculate the ability of test compound to inhibit binding of human MCP-1 to THP-1 cells, non-specific binding determined by adding 100 ng of unlabeled human MCP-1 in place of the test compound was subtracted, while the counts with no test compound added was taken as 100%. Inhibition (%)=(1-(A-B)/(C-B))×100 (A, counts with test compound added; B, counts with 100 ng of unlabeled human MCP-1 added; C, counts with [^125I]-labeled human MCP-1 added).

[2] = molecular target: T2, binding of human MIP-1α to THP-1 cells (Homo sapiens, UniProt P32246); assay: Inhibition of MIP-1α binding to THP-1 cells; conditions: at 10 μM
T2 construct: endogenous in cells; host or cells: THP-1 (human monocytic leukemia cell line), whole cells
T2 sequence (P32246 1-355): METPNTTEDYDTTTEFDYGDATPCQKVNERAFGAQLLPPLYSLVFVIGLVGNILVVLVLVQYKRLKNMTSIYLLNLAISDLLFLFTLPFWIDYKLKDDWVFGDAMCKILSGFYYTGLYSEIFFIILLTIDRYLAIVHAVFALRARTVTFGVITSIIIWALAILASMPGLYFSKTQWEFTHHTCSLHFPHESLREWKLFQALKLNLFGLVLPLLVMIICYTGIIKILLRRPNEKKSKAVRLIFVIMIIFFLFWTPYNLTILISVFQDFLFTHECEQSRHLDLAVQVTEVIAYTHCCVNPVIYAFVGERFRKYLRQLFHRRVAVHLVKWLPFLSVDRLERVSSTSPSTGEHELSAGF

[3] = molecular target: T1, binding of human MCP-1 to THP-1 cells; assay: Inhibition of binding of [125I]-labeled baculovirus expressed human MCP-1 to THP-1 cells (Method 2)
Text: 1. Construction of recombinant baculovirus carrying the human MCP-1 gene
Based on the previously published human MCP-1 gene sequence (for example T. Yoshirnura et al., FEBS Lett., 1989, 244, 487-493), two synthetic DNA primers (5′-[…]-3′ and 5′-[…]-3′) flanked by restriction enzyme sites were used to amplify a DNA fragment from cDNA derived from human endothelial cells (purchased from Kurabow Co.); the amplified fragment was cut with the restriction enzymes (PstI and XbaI), ligated into a transfer vector pVL1393 (Invitrogen Co.), and the resulting vector was co-transfected along with infectious baculovirus into Sf-9 insect cells and the supernatant was plaque assayed to yield human MCP-1 gene baculovirus recombinant.
2. Synthesis of [^125I]-labeled human MCP-1 expressed in baculovirus
Using the method of K. Ishii et al. (Biochem Biophys Research Communications, 1995, 206, 955-961), 5×10^6 Sf-6 insect cells was infected with 5×10^7 PFU (plaque forming units) of the above human MCP-1 recombinant baculovirus and cultured for 7 days in Ex-Cell 401 medium. The culture supernatant was affinity purified using a heparin Sepharose column (Pharmacia Co.) and then further purified using reverse phase HPLC (Vydac C18 column) to prepare purified human MCP-1. The purified human MCP-1 was protein labeled by Amersham Co. using the Bolton Hunter method to yield [^125I]-labeled baculovirus expressed human MCP-1 (specific activity 2000 Ci/mmol).
3-2. Measurement of inhibition of binding of [^125I]-labeled baculovirus expressed human MCP-1 to THP-1 cells (Method 2)
Human monocytic leukemia cell line THP-1 was suspended in assay buffer (50 mM HEPES, pH 7.4, 1.0 mM CaCl2, 5.0% mM MgCl2, 0.5% BSA) to give a cell suspension of a concentration of 1×10^7 cells/mL. The test compound was diluted in the assay buffer and used as the test compound solution. [^125I]-labeled human MCP-1 described above was diluted in assay buffer to 1 mCi/mL and used as the labeled ligand solution. In a 96 well filter plate (Millipore Co.), 25 μL of test compound solution, 25 μL of labeled ligand solution and 50 μL of cell suspension were aliquoted into each well in this order, stirred (total reaction volume 100 μL), and incubated for one hour at 18° C.
After the reaction, the reaction solution was filtered, and the filter was washed twice with 200 μL of cold PBS (200 μL of cold PBS was added and then filtered). The filter was air-dried and 25 μL of liquid scintillator was added into each well. The radioactivity retained by the cells on the filter were measured using TopCount (Packard Instrument Co.).
To calculate the ability of test compound to inhibit binding of human MCP-1 to THP-1 cells, non-specific binding determined by adding 100 ng of unlabeled human MCP-1 in place of the test compound was subtracted, while the counts with no test compound added was taken as 100%.
Inhibition (%)={1−(A−B)/(C−B)}×100
(A, counts with test compound added; B, counts with 100 ng of unlabeled human MCP-1 added; C, counts with [^125I]-labeled human MCP-1 added).

THP-1 cells = assay: Inhibition of cell chemotaxis caused by MCP-1; assay type: cell-based, human; conditions: MCP-1 20 ng/mL, read-out: inhibition of cell migration IC50
Method: Measurement of Inhibition of Cell Chemotaxis
In order to determine the inhibition of cell chemotaxis by the compounds of this invention, we measured cell chemotaxis caused by monocyte chemotactic factor MCP-1 using the human monocytic leukemia cell line THP-1 as the chemotactic cell according to the method of Fall et al. (J. Immunol. Methods, 190, 33,239-247). 2×10^6 cells/mL of THP-1 cells (suspended in RPMI-1640 (Flow Laboratories Co.)+10% FCS) was placed in the upper chamber (200 μL) of a 96 well micro-chemotaxis chamber (Neuroprobe; registered tradename), and human recombinant MCP-1 in a same solution (Peprotech Co.) at a final concentration of 20 ng/mL was placed in the lower chamber, with a polycarbonate filter (PVP-free, Neuroprobe; registered tradename) placed between the two chambers. These were incubated at 37° C. for 2 hr in 5% CO2.
The filter was removed, and the cells which had migrated to the underside of the filter was fixed, stained using Diff Quick (Kokusai Shiyaku Co.) and then quantitated using a plate reader (Molecular Device Co.) at a wavelength of 550 nm to determine the index of cell migration as a mean of 3 wells. In addition, test compounds were placed in the upper and lower chambers along with THP-1 and MCP-1, respectively, and the inhibition of cell migration (inhibition IC50 (μM)) was determined.

| SMILES | inhibition of MCP-1 binding to THP-1 cells ([1]; Method 1, at 100 μM) | inhibition of MIP-1α binding to THP-1 cells [2] | also measured |
| --- | --- | --- | --- |
| O=C(CNC(=O)c1cc(C(F)(F)F)cc(C(F)(F)F)c1)NC1CCN(Cc2ccc(Cl)cc2)C1 (stereo not drawn) [compound 29] | > 80% | 20-50% | – |
| CSc1ccc(CN2CCC(CNC(=O)CNC(=O)c3cc(Br)ccc3N)CC2)cc1 [compound 1441] | – | – | inhibition of MCP-1 binding to THP-1 cells ([3]; Method 2, at 1 μM): > 80%; IC50 (THP-1 cells): < 0.1 µM |
| Cc1ccc(CN2CCC(NC(=O)CNC(=O)c3cc(OC(F)(F)F)ccc3N)C2)cc1 (stereo not drawn) [compound 1590] | – | – | inhibition of MCP-1 binding to THP-1 cells ([3]; Method 2, at 1 μM): > 80%; IC50 (THP-1 cells): < 0.1 µM |
| Cc1ccccc1C(=O)NCC(=O)NC1CCCN(Cc2ccc(Cl)cc2)C1 (stereo not drawn) [compound 357] | > 80% | 20-50% | – |
| CCOc1cc(CN2CCC(NC(=O)CNC(=O)c3cc(OC(F)(F)F)ccc3N)C2)ccc1O (stereo not drawn) [compound 1915] | – | – | inhibition of MCP-1 binding to THP-1 cells ([3]; Method 2, at 1 μM): > 80% |
| O=C(CCCC(=O)c1ccccc1)NC1CCN(Cc2ccc(Cl)cc2)C1 (racemic) [compound 214] | > 80% | 20-50% | – |
| O=C(CNC(=O)c1cc2ccccc2[nH]1)NCC1CCN(Cc2ccc(Cl)cc2)CC1 [compound 484] | – | 20-50% | inhibition of MCP-1 binding to THP-1 cells ([1]; Method 1, at 10 μM): > 80% |
| Cc1ccc(CN2CCC(NC(=O)CNC(=O)c3cc(Br)ccc3N)C2)cc1 (stereo not drawn) [compound 1256] | – | – | inhibition of MCP-1 binding to THP-1 cells ([3]; Method 2, at 1 μM, 1 µM): > 80%; IC50 (THP-1 cells): < 0.1 µM |
| Nc1ccc([N+](=O)[O-])cc1C(=O)NCC(=O)NCC1CCN(Cc2ccc(Cl)cc2)CC1 [compound 541] | – | – | inhibition of MCP-1 binding to THP-1 cells ([3]; Method 2, at 10 μM): > 80% |
| O=C(CNC(=O)c1cccc([N+](=O)[O-])c1)NCC1CCCN1Cc1ccc(Cl)cc1 (racemic) [compound 335] | > 80% | 20-50% | – |
| O=C(CNC(=O)OCc1ccccc1)NC1CCN(Cc2ccc(Cl)cc2)C1 (stereo not drawn) [compound 237] | > 80% | 20-50% | – |
| O=C(CNC(=O)c1cc(C(F)(F)F)ccc1F)NC1CCN(Cc2ccc(Cl)cc2)C1 (stereo not drawn) [compound 45] | > 80% | 20-50% | inhibition of MCP-1 binding to THP-1 cells ([1]; Method 1, at 10 μM): > 80% |
| O=C(CNC(=O)c1cc(F)cc(C(F)(F)F)c1)NC1CCN(Cc2ccc(Cl)cc2)C1 (stereo not drawn) [compound 46] | > 80% | 20-50% | inhibition of MCP-1 binding to THP-1 cells ([1]; Method 1, at 10 μM): > 80% |
| O=C(CCNC(=O)c1ccccc1)NC1CCN(Cc2ccc(Cl)cc2)C1 (racemic) [compound 85] | > 80% | 20-50% | – |
| O=C(CCNC(=O)c1ccc(F)c(C(F)(F)F)c1)NC1CCN(Cc2ccc(Cl)cc2)C1 (stereo not drawn) [compound 107] | > 80% | 20-50% | – |
| Nc1ccc(C(F)(F)F)cc1C(=O)NCC(=O)NCC1CCN(Cc2ccc(Br)cc2)CC1 [compound 1780] | – | – | inhibition of MCP-1 binding to THP-1 cells ([3]; Method 2, at 1 μM): > 80% |
| O=C(CCCC(=O)NC1CCN(Cc2ccc(Cl)cc2)C1)Nc1cccc(Cl)c1 (stereo not drawn) [compound 227] | > 80% | 20-50% | – |
| COc1ccc(OC)c(C(=O)CCC(=O)NC2CCN(Cc3ccc(Cl)cc3)C2)c1 (racemic) [compound 217] | > 80% | 20-50% | – |
| O=C(CNC(=O)c1cccc(C(F)(F)F)c1F)NCC1CCN(Cc2ccc(Cl)cc2)CC1 [compound 491] | – | 20-50% | inhibition of MCP-1 binding to THP-1 cells ([1]; Method 1, at 10 μM): > 80% |
| Cc1ccc(CN2CCC(NC(=O)CNC(=O)c3cc(F)cc(C(F)(F)F)c3)C2)c(C)c1 (stereo not drawn) [compound 1724] | – | – | inhibition of MCP-1 binding to THP-1 cells ([3]; Method 2, at 1 μM): > 80% |

Further lines, with some results ahead:

| inhibition of MCP-1 binding to THP-1 cells ([1]; Method 1, at 100 μM) | inhibition of MIP-1α binding to THP-1 cells [2] | SMILES | also measured |
| --- | --- | --- | --- |
| – | 20-50% | CSc1ccc(CN2CCC(CNC(=O)CNC(=O)c3cccc(C(F)(F)F)c3)CC2)cc1 [compound 929] | inhibition of MCP-1 binding to THP-1 cells ([1]; Method 1, at 10 μM): > 80% |
| – | 20-50% | Nc1ccccc1CN1CCC(CNC(=O)CNC(=O)c2cccc(C(F)(F)F)c2)CC1 [compound 518] | inhibition of MCP-1 binding to THP-1 cells ([1]; Method 1, at 10 μM): > 80% |
